No constants are given. Whether binding was seen depends on the method and setting. In cells and extracts the contact can be indirect. Some results given as binding are weak or reduced against the parent protein; the word gives no strength.
Assays:
[1] = biological target: auto-PARylated PARP-1, endogenous in MNNG-treated LF-1 human fibroblasts (human (endogenous in LF-1)) (UniProt P09874); experiment: co-IP; polyclonal anti-PAR antibody pre-bound to protein-G magnetic beads; nuclear extracts (RIPA) of quiescent LF-1 fibroblasts, untreated or treated 30 min with 25 μM MNNG; 3 h, 4°C; Western blot for PAR, PARP-1, p21
[2] = biological target: Poly(ADP-ribose) polymerase-1 (PARP-1), endogenous in LF-1 human fibroblasts (human (endogenous in LF-1)) (UniProt P09874); experiment: condition: only cells pre-treated with 10 μM Olaparib before MNNG; co-IP; monoclonal anti-PARP-1 (F1-23) pre-bound to protein-G magnetic beads; nuclear extracts of LF-1 fibroblasts pre-treated with 10 μM Olaparib before 25 μM MNNG; Western blot
[3] = biological target: Poly(ADP-ribose) polymerase-1 (PARP-1), endogenous in LF-1 human fibroblasts (human (endogenous in LF-1)) (UniProt P09874); experiment: co-IP; monoclonal anti-PARP-1 (F1-23) pre-bound to protein-G magnetic beads; nuclear extracts (RIPA) of LF-1 fibroblasts treated 30 min with 25 μM MNNG alone (for XRCC1 and pol ß also after pre-treatment with 10 μM Olaparib: reduced); 3 h, 4°C; Western blot
[4] = biological target: GST-tagged full-length PARP-1 (FL) (UniProt P09874); experiment: pull-down; GSH-agarose beads; 1 mg extract of HeLa cells co-transfected with GST-PARP-1 constructs and p21-GFP, treated with 25 μM MNNG (for XRCC1 and pol ß also with 10 μM Olaparib: reduced); 50 mM Tris-HCl pH 8.0, 2.5 mM MgCl2, 75 mM KCl, 5 mM DTT; 1 h, 4°C; Western blot

Sequences of proteins named here, by UniProt entry; tags and fusion partners are left off.
UniProt P09874: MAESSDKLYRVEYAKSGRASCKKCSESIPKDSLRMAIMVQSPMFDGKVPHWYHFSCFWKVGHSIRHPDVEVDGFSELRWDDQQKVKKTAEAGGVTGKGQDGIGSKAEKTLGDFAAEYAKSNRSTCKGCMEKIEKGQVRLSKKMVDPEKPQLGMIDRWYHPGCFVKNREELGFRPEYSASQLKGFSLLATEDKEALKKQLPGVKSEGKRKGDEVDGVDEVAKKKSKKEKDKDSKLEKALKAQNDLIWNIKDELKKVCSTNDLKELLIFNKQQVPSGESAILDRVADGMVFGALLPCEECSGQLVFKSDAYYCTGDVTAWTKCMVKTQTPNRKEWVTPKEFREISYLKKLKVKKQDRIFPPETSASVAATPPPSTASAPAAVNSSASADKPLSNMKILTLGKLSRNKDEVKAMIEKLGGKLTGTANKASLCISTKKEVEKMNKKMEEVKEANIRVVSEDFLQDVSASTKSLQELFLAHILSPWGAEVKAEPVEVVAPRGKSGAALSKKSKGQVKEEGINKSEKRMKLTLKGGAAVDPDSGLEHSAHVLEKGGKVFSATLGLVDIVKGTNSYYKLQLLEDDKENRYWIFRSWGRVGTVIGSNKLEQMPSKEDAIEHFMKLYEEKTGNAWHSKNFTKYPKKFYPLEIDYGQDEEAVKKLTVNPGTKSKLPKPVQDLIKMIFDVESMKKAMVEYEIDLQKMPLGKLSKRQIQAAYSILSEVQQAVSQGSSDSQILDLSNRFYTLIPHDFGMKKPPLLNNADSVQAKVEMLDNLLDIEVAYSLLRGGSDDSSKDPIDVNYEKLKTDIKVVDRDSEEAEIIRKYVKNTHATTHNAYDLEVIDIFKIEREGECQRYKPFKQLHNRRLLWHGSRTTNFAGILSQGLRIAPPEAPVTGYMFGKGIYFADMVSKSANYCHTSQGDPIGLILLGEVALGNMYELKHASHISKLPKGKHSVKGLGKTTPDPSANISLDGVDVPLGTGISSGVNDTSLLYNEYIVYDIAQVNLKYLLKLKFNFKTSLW
UniProt P38936: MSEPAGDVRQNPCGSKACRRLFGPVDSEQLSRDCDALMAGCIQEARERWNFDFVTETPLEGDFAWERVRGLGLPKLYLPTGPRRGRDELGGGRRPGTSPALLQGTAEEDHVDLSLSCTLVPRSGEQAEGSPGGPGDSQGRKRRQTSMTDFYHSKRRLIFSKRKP
UniProt P18887: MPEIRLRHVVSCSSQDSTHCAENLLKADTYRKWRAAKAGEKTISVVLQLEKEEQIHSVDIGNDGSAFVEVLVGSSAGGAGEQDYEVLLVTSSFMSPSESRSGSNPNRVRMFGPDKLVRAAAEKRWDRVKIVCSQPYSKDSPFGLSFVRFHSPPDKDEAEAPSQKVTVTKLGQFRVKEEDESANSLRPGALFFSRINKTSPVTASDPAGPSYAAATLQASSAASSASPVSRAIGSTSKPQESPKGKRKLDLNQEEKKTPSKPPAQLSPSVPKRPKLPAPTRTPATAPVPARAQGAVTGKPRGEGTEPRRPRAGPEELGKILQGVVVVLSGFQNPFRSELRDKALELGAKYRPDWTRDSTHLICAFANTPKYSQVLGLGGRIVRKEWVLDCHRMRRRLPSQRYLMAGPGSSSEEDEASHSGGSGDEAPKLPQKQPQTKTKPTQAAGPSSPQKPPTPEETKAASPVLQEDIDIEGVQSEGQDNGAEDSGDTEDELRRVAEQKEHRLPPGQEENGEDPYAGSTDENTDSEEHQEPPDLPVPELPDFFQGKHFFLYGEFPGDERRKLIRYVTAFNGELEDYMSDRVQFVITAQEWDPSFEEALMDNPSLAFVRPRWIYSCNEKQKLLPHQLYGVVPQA

| Substance | binding [1] | binding [2] | binding [3] | binding [4] |
| --- | --- | --- | --- | --- |
| p21^CDKN1A, endogenous in LF-1 human fibroblasts (from UniProt P38936 1-164) | binds | no binding | binds |  |
| p21 fused to GFP (p21-GFP) (from UniProt P38936 1-164) |  |  |  | binds |
| XRCC1, endogenous in HeLa cells (from UniProt P18887 1-633) |  |  |  | binds |
| XRCC1, endogenous in LF-1 human fibroblasts (from UniProt P18887 1-633) |  |  | binds |  |
